Measurements published in ChEMBL document CHEMBL4689842, “EUbOPEN Chemogenomics Library wave 1” (2021).
Certain results were filed several times, with different values. This list holds those alone. An entry can have further records. Values given together repeat one measurement (runs, samples, wells, individuals or studies).

Assays:
Type in all cases: toxicity, cell-based
[1] = test system: Fibroblast; experiment: Multiplex assay against human fibroblast; details: 10 µM, compound concentration 10 uM
Method in brief: (§1)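 At seeding, live cells were stained with Hoechst33342, BioTracker Green Microtubule Cytoskeleton Dye, MitoTracker Red and Annexin V Alexa Fluor 680. After compound addition they were imaged on a CQ1 microscope at 37°C and 5% CO2, and CellPathfinder machine-learning gating sorted them into Hoechst high-intensity objects or normal cells, with normal cells further split into healthy, pyknosed or fragmented nuclei and pyknosed cells into mitotic or apoptotic. Tubulin, mitochondrial-mass and membrane-permeability phenotypes are given as per cents of cells with healthy nuclei.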

[2] = test system: HEK-293T; experiment: Multiplex assay against HEK293T; details: human, 10 µM, compound concentration 10 uM; method in brief: as §1;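 for Population Tubulin-Different-Phenotype (%): share of the cells with healthy nuclei that show this phenotype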
[3] = test system: U2OS; experiment: Multiplex assay against U2OS; details: human, 10 µM, compound concentration 10 uM; method in brief: as §1

SMILES: Cn1c(-c2csc(C3CCN(CC4=NC5N=CC=CC5N4)CC3)n2)nc2ccccc21 (stereo not drawn) [BAY-070]
- Population Tubulin-Different-Phenotype (%) ([1]; 12 h, replicate 1): 15% and 2%
- Population Apoptotic (%) ([1]; 12 h, replicate 2): 16% and 80%
- Population Mitochondria Different-Phenotype (%) ([1]; 12 h, replicate 2): 27% and 0%
- Population Mitotic Cells (%) ([1]; 12 h, replicate 2): 83% and 20%
- Population Tubulin-Different-Phenotype (%) ([1]; 12 h, replicate 2): 9% and 41%
- Population Mitochondria Different-Phenotype (%) ([1]; 24 h, replicate 1): 8% and 1%
- Population Tubulin-Different-Phenotype (%) ([1]; 24 h, replicate 1): 18% and 2%
- Population Apoptotic (%) ([1]; 24 h, replicate 2): 0% and 57%
- Population Mitochondria Different-Phenotype (%) ([1]; 24 h, replicate 2): 20% and 5%
- Population Pyknosed Nuclei (%) ([2]; 12 h, replicate 2): 13% and 4%
- Population Tubulin-Different-Phenotype (%) ([2]; 24 h, replicate 1): 19% and 6%
- Population Pyknosed Nuclei (%) ([2]; 24 h, replicate 2): 2% and 7%
- Population Tubulin-Different-Phenotype (%) ([2]; 24 h, replicate 2): 8% and 34%
- Population Apoptotic (%) ([3]; 12 h, replicate 1): 8% and 29%
- Population Apoptotic (%) ([3]; 12 h, replicate 2): 0% and 33%
- Population Membrane Permeable-Phenotype (%) ([3]; 24 h, replicate 2): 16% and 5%

SMILES: CNCc1ccccc1-c1csc([C@H](C)Nc2nc(C)nc3cc(OC)c(OC)cc23)c1 [BAY-294]
- Population Healthy Nuclei (%) ([1]; 12 h, replicate 1): 48%, 16%, 9%
- Population Hoechst High Intensity Objects (%) ([1]; 12 h, replicate 1): 29%, 6%, 15%
- Population Mitochondria Different-Phenotype (%) ([1]; 12 h, replicate 1): 4% and 32%
- Population Mitotic Cells (%) ([1]; 12 h, replicate 1): 56%, 43%, 17%
- Population Healthy Nuclei (%) ([1]; 12 h, replicate 2): 14%, 43%, 23%
- Population Membrane Permeable-Phenotype (%) ([1]; 12 h, replicate 2): 44%, 15%, 86%
- Population Mitochondria Different-Phenotype (%) ([1]; 12 h, replicate 2): 33%, 25%, 93%
- Population Healthy Nuclei (%) ([1]; 24 h, replicate 1): 49%, 7%, 21%
- Population Membrane Permeable-Phenotype (%) ([1]; 24 h, replicate 1): 9%, 6%, 50%
- Population Mitochondria Different-Phenotype (%) ([1]; 24 h, replicate 1): 5%, 25%, 50%
- Population Mitotic Cells (%) ([1]; 24 h, replicate 1): 45% and 10%
- Population Healthy Nuclei (%) ([1]; 24 h, replicate 2): 36%, 6%, 20%
- Population Membrane Permeable-Phenotype (%) ([1]; 24 h, replicate 2): 8%, 33%, 85%
- Population Mitochondria Different-Phenotype (%) ([1]; 24 h, replicate 2): 4%, 100%, 92%
- Population Mitotic Cells (%) ([1]; 24 h, replicate 2): 68%, 6%, 21%
- Population Tubulin-Different-Phenotype (%) ([1]; 24 h, replicate 2): 44%, 0%, 85%
- Population Healthy Nuclei (%) ([2]; 12 h, replicate 1): 0%, 45%, 19%
- Population Membrane Permeable-Phenotype (%) ([2]; 12 h, replicate 1): 0%, 28%, 13%
- Population Mitochondria Different-Phenotype (%) ([2]; 12 h, replicate 1): 100%, 30%, 67%
- Population Mitotic Cells (%) ([2]; 12 h, replicate 1): 16%, 70%, 57%
- Population Apoptotic (%) ([2]; 12 h, replicate 2): 82% and 11%
- Population Fragmented Nuclei (%) ([2]; 12 h, replicate 2): 1%, 5%, 4%
- Population Healthy Nuclei (%) ([2]; 12 h, replicate 2): 40%, 9%, 73%
- Population Hoechst High Intensity Objects (%) ([2]; 12 h, replicate 2): 11%, 4%, 3%
- Population Membrane Permeable-Phenotype (%) ([2]; 12 h, replicate 2): 7%, 5%, 30%
- Population Mitotic Cells (%) ([2]; 12 h, replicate 2): 17% and 88%
- Population Pyknosed Nuclei (%) ([2]; 12 h, replicate 2): 57%, 84%, 21%
- Population Healthy Nuclei (%) ([2]; 24 h, replicate 1): 0%, 14%, 60%
- Population Membrane Permeable-Phenotype (%) ([2]; 24 h, replicate 1): 0%, 20%, 27%
- Population Mitochondria Different-Phenotype (%) ([2]; 24 h, replicate 1): 100%, 54%, 29%
- Population Tubulin-Different-Phenotype (%) ([2]; 24 h, replicate 1): 0%, 57%, 96%
- Population Apoptotic (%) ([2]; 24 h, replicate 2): 53%, 95%, 16%
- Population Healthy Nuclei (%) ([2]; 24 h, replicate 2): 23%, 7%, 82%
- Population Hoechst High Intensity Objects (%) ([2]; 24 h, replicate 2): 12%, 7%, 3%
- Population Mitochondria Different-Phenotype (%) ([2]; 24 h, replicate 2): 85%, 69%, 19%
- Population Mitotic Cells (%) ([2]; 24 h, replicate 2): 46%, 4%, 83%
- Population Pyknosed Nuclei (%) ([2]; 24 h, replicate 2): 67%, 86%, 5%
- Population Fragmented Nuclei (%) ([3]; 12 h, replicate 1): 27% and 8%
- Population Healthy Nuclei (%) ([3]; 12 h, replicate 1): 10%, 31%, 73%
- Population Pyknosed Nuclei (%) ([3]; 12 h, replicate 1): 62%, 52%, 17%
- Population Fragmented Nuclei (%) ([3]; 12 h, replicate 2): 15%, 46%, 18%
- Population Hoechst High Intensity Objects (%) ([3]; 12 h, replicate 2): 11% and 55%
- Population Pyknosed Nuclei (%) ([3]; 12 h, replicate 2): 46%, 30%, 14%
- Population Fragmented Nuclei (%) ([3]; 24 h, replicate 1): 38%, 20%, 11%
- Population Healthy Nuclei (%) ([3]; 24 h, replicate 1): 3%, 9%, 60%
- Population Hoechst High Intensity Objects (%) ([3]; 24 h, replicate 1): 5%, 13%, 3%
- Population Healthy Nuclei (%) ([3]; 24 h, replicate 2): 14%, 47%, 20%
- Population Hoechst High Intensity Objects (%) ([3]; 24 h, replicate 2): 17%, 7%, 54%

SMILES: CCOCCn1cc(C(=O)Nc2ccc(-n3nc(-c4cccnc4)cc3C(F)(F)F)cn2)ccc1=O [BI 1935]
- Population Mitochondria Different-Phenotype (%) ([1]; 12 h, replicate 1): 54% and 6%
- Population Mitotic Cells (%) ([1]; 12 h, replicate 1): 14%, 47%, 38%
- Population Tubulin-Different-Phenotype (%) ([1]; 12 h, replicate 1): 90%, 26%, 6%
- Total Cell Count ([1]; 12 h, replicate 1): 91, 305, 229
- Population Fragmented Nuclei (%) ([1]; 12 h, replicate 2): 61%, 62%, 8%
- Population Healthy Nuclei (%) ([1]; 12 h, replicate 2): 34%, 18%, 65%
- Population Hoechst High Intensity Objects (%) ([1]; 12 h, replicate 2): 37%, 39%, 7%
- Population Mitochondria Different-Phenotype (%) ([1]; 12 h, replicate 2): 5%, 0%, 47%
- Population Mitotic Cells (%) ([1]; 12 h, replicate 2): 0%, 57%, 52%
- Population Pyknosed Nuclei (%) ([1]; 12 h, replicate 2): 4%, 18%, 26%
- Population Mitochondria Different-Phenotype (%) ([1]; 24 h, replicate 1): 40%, 8%, 0%
- Population Tubulin-Different-Phenotype (%) ([1]; 24 h, replicate 1): 91%, 31%, 4%
- Total Cell Count ([1]; 24 h, replicate 1): 89, 292, 238
- Population Fragmented Nuclei (%) ([1]; 24 h, replicate 2): 48%, 54%, 9%
- Population Hoechst High Intensity Objects (%) ([1]; 24 h, replicate 2): 39% and 8%
- Population Membrane Permeable-Phenotype (%) ([1]; 24 h, replicate 2): 5%, 22%, 10%
- Population Mitochondria Different-Phenotype (%) ([1]; 24 h, replicate 2): 5%, 11%, 50%
- Population Pyknosed Nuclei (%) ([1]; 24 h, replicate 2): 6%, 20%, 23%
- Population Apoptotic (%) ([2]; 12 h, replicate 1): 69%, 21%, 16%
- Population Mitochondria Different-Phenotype (%) ([2]; 12 h, replicate 1): 95%, 14%, 6%
- Population Pyknosed Nuclei (%) ([2]; 12 h, replicate 1): 57%, 33%, 18%
- Population Tubulin-Different-Phenotype (%) ([2]; 12 h, replicate 1): 95%, 37%, 6%
- Population Apoptotic (%) ([2]; 12 h, replicate 2): 28%, 15%, 5%
- Population Hoechst High Intensity Objects (%) ([2]; 12 h, replicate 2): 8%, 3%, 2%
- Population Mitochondria Different-Phenotype (%) ([2]; 12 h, replicate 2): 69%, 33%, 7%
- Population Pyknosed Nuclei (%) ([2]; 12 h, replicate 2): 66%, 11%, 4%
- Population Tubulin-Different-Phenotype (%) ([2]; 12 h, replicate 2): 72%, 70%, 7%
- Total Cell Count ([2]; 12 h, replicate 2): 216, 1064, 1871
- Population Apoptotic (%) ([2]; 24 h, replicate 1): 70%, 24%, 19%
- Population Membrane Permeable-Phenotype (%) ([2]; 24 h, replicate 1): 3% and 11%
- Population Mitochondria Different-Phenotype (%) ([2]; 24 h, replicate 1): 95%, 16%, 5%
- Population Pyknosed Nuclei (%) ([2]; 24 h, replicate 1): 46%, 20%, 8%
- Population Tubulin-Different-Phenotype (%) ([2]; 24 h, replicate 1): 94%, 58%, 7%
- Population Apoptotic (%) ([2]; 24 h, replicate 2): 46%, 11%, 1%
- Population Fragmented Nuclei (%) ([2]; 24 h, replicate 2): 4%, 5%, 26%
- Population Membrane Permeable-Phenotype (%) ([2]; 24 h, replicate 2): 6%, 15%, 4%
- Population Mitochondria Different-Phenotype (%) ([2]; 24 h, replicate 2): 68%, 22%, 1%
- Population Pyknosed Nuclei (%) ([2]; 24 h, replicate 2): 51%, 6%, 1%
- Population Tubulin-Different-Phenotype (%) ([2]; 24 h, replicate 2): 83%, 85%, 8%
- Total Cell Count ([2]; 24 h, replicate 2): 217, 1367, 3188
- Population Fragmented Nuclei (%) ([3]; 12 h, replicate 1): 16% and 4%
- Population Membrane Permeable-Phenotype (%) ([3]; 12 h, replicate 1): 60%, 17%, 12%
- Population Mitochondria Different-Phenotype (%) ([3]; 12 h, replicate 1): 13%, 53%, 17%
- Population Pyknosed Nuclei (%) ([3]; 12 h, replicate 1): 11%, 20%, 3%
- Population Tubulin-Different-Phenotype (%) ([3]; 12 h, replicate 1): 57%, 71%, 17%
- Population Membrane Permeable-Phenotype (%) ([3]; 12 h, replicate 2): 56%, 8%, 10%
- Population Pyknosed Nuclei (%) ([3]; 12 h, replicate 2): 17%, 26%, 5%
- Population Tubulin-Different-Phenotype (%) ([3]; 12 h, replicate 2): 40%, 64%, 18%
- Population Fragmented Nuclei (%) ([3]; 24 h, replicate 1): 23% and 4%
- Population Membrane Permeable-Phenotype (%) ([3]; 24 h, replicate 1): 16%, 40%, 8%
- Population Pyknosed Nuclei (%) ([3]; 24 h, replicate 1): 13%, 8%, 3%
- Population Tubulin-Different-Phenotype (%) ([3]; 24 h, replicate 1): 59%, 36%, 17%
- Population Membrane Permeable-Phenotype (%) ([3]; 24 h, replicate 2): 42%, 10%, 6%
- Population Pyknosed Nuclei (%) ([3]; 24 h, replicate 2): 23% and 4%
